{
  "source": "PubChem BioAssay AID1347165",
  "about": "(National Center for Advancing Translational Sciences (NCATS), 2019)",
  "note": "The whole screen tested about 220,000 compounds, of which about 5,700 (2.6%) were called active. The shares of active, inactive and inconclusive entries below differ from those in the screen. Calls follow the shape of the dose curve; as a rule, active = well fitted inhibition curve with a large enough effect; inconclusive = small, poorly fitted or top-dose-only effect; inactive = no such curve, though single readings can be large or run the other way. A potency beside an inconclusive call is a rough fit, not a confirmed value. Potency is read from the fitted curve at half-maximal effect; tags tell the direction and shape of the fitted curve.",
  "data": [
    {"biological_target": "Lysine-specific demethylase 5B (Homo sapiens) (UniProt Q9UGL1)", "sequence (Q9UGL1 whole entry, looked up)": "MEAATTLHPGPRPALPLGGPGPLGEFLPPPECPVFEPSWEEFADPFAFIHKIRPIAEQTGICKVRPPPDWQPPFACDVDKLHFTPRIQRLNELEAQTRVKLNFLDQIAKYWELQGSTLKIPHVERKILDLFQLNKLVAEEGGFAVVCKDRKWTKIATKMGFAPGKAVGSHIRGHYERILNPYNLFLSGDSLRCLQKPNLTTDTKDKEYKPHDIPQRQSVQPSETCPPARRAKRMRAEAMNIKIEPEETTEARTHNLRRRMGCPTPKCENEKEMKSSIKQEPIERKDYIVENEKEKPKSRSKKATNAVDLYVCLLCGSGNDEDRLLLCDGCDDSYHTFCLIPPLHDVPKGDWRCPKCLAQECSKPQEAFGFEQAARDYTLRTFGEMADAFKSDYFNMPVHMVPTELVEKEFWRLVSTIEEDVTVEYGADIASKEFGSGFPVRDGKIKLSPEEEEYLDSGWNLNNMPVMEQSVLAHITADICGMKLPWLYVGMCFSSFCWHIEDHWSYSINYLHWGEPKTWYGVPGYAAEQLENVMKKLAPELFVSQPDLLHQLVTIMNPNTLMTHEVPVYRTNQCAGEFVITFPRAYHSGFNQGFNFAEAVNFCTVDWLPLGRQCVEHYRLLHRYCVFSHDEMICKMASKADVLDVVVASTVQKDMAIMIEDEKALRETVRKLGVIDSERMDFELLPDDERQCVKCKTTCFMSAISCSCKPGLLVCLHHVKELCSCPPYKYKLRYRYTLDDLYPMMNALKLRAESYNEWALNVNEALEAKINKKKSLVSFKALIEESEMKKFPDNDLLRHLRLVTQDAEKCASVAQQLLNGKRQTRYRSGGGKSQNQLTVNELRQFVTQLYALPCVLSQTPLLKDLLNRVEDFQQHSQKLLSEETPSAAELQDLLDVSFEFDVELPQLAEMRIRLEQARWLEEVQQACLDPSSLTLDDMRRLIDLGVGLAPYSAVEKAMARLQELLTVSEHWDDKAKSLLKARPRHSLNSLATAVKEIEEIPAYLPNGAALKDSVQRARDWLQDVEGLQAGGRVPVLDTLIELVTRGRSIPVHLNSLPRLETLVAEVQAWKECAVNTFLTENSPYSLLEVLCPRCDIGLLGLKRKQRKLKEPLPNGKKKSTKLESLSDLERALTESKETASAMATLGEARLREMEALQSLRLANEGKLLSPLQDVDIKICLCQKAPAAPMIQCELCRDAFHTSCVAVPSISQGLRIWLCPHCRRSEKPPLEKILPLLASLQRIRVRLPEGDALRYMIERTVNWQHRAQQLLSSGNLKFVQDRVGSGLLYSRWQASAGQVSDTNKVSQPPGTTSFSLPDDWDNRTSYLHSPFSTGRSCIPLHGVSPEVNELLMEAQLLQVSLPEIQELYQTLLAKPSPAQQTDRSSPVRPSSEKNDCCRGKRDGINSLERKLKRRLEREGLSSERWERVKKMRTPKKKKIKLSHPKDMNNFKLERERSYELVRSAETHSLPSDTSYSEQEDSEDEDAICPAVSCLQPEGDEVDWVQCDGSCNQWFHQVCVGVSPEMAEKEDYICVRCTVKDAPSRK", "assay": "Primary screen for KDM5B Histone Demethylases FDH-coupled qHTS; also: nearly all actives have a fitted effect of over 70% in size; as to activity change, negative = inhibition: 0% is about no effect", "conditions": "FDH-coupled NADH fluorescence (FDH is formaldehyde dehydrogenase); activity change, negative = inhibition: at 57.7 µM (top of the series) unless noted", "method_in_brief": "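Here, H3K4me3 peptide (12.5 µM in substrate mix) is demethylated by KDM5BΔAP, 200 nM final, after 10 min compound exposure. Formaldehyde product is coupled through FDH (0.25 U/mL in mix) to NADH fluorescence; 30-min ΔRFU feeds dose-response curves.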", "values": [
      {"smiles": "CCOCCCNC(=O)C1(O)c2cc(Br)ccc2NC(=O)N1c1cccc(OC)c1", "note": "(stereo not drawn)", "activity change, negative = inhibition": "inactive: 25.6%"},
      {"smiles": "Cc1ccc(-c2nc(C3CC(=O)N(C4CCCCC4)C3)no2)s1", "note": "(stereo not drawn)", "Potency": "inconclusive: 28.2 µM [inhibitor, partial curve, poor fit]"},
      {"smiles": "CCCCn1c(=O)[nH]c(=O)c2c1nc(-c1ccc(OCCC)c(OCC)c1)n2CCOC", "activity change, negative = inhibition": "inactive: -23.5%"},
      {"smiles": "CCCCNc1nc(-c2ccc(Cl)cc2)nc2ccccc12", "Potency": "inconclusive: 39.8 µM [inhibitor, single point]"},
      {"smiles": "CCCCOc1ccc(C(=O)N2CCN(CCc3ccncc3)CC2)cc1", "activity change, negative = inhibition": "inactive: -23.1%"},
      {"smiles": "Nc1nccnc1C(=O)NCCNc1cnccn1", "activity change, negative = inhibition": "inactive: 93.1%"},
      {"smiles": "O=C(NCCc1ccccc1)c1cnc2sc(N3CCCC3)nn2c1=O", "Potency": "inconclusive: 31.6 µM [inhibitor, partial curve, poor fit]"},
      {"smiles": "CCN1CCN(CCCNC(=O)c2cc3c(=O)n(C)c4ccccc4c3s2)CC1", "Potency": "inconclusive: 31.6 µM [inhibitor, partial curve, poor fit]"},
      {"smiles": "O=C(c1nc(-c2cccc(C(F)(F)F)c2)c2ccccn12)N1CCOCC1", "Potency": "active: 28.2 µM"},
      {"smiles": "COCCOC1CCOC2(CCN(C(=O)Cc3ccsc3)CC2)C1", "note": "(stereo not drawn)", "Potency": "inconclusive: 28.2 µM [inhibitor, single point]"},
      {"smiles": "COc1ccc(-c2cn3c4ccccc4nc3n2CCCN2CCCCC2)cc1", "Potency": "inconclusive: 39.8 µM [inhibitor, single point]"},
      {"smiles": "CN(C)CCCNC(=O)c1cc(-c2ccc(-c3ccccc3)cc2)nc2ccccc12", "activity change, negative = inhibition": "inactive: 850%"},
      {"smiles": "Cc1cc(C)cc(N2CCC(NC(=O)c3ccc(Cl)s3)C2=O)c1", "note": "(stereo not drawn)", "activity change, negative = inhibition": "inactive: -9.97%"},
      {"smiles": "Nc1nccnc1C(=O)NCC(=O)Nc1ccc(F)c(F)c1", "Potency": "inconclusive: 35.5 µM [inhibitor, partial curve, poor fit]"},
      {"smiles": "O=C(COc1ccccc1Cl)NCC1(N2CCOCC2)CCCCC1", "Potency": "inconclusive: 0.891 µM [inhibitor, full curve, poor fit]"},
      {"smiles": "CCCCCCC(=O)N(O)C1CC(=O)N(c2ccc(F)cc2)C1=O", "note": "(stereo not drawn)", "Potency": "inconclusive: 8.91 µM [inhibitor, full curve, poor fit]"},
      {"smiles": "CC1CCN(CC2CCCN(c3ncccc3C#N)C2)CC1", "note": "(stereo not drawn)", "Potency": "inconclusive: 22.4 µM [inhibitor, partial curve, poor fit]"},
      {"smiles": "O=C(NCC1Cn2cccc2CN1Cc1ccccc1)c1ccco1", "note": "(stereo not drawn)", "Potency": "active: 28.2 µM"},
      {"smiles": "CCC(C)Nc1ccc2nncn2n1", "note": "(stereo not drawn)", "Potency": "active: 28.2 µM"},
      {"smiles": "CCn1nc(C(=O)NCC(c2cccs2)N2CCCC2)c2ccccc2c1=O", "note": "(stereo not drawn)", "Potency": "inconclusive: 12.6 µM [inhibitor, partial curve, poor fit]"},
      {"smiles": "Cc1ccc(N(C(=O)c2snc(C(N)=O)c2N)C(C(=O)NC2CCCC2)c2ccco2)cc1", "note": "(stereo not drawn)", "Potency": "inconclusive: 22.4 µM [inhibitor, partial curve, poor fit]"},
      {"smiles": "Cc1ccccc1-c1nc(CS(=O)(=O)CC(=O)NCC(C)c2ccccc2)c(C)o1", "note": "(stereo not drawn)", "Potency": "inconclusive: 10 µM [inhibitor, partial curve, poor fit]"},
      {"smiles": "COc1ccccc1CN1CCc2ccccc2C1", "Potency": "inconclusive: 14.1 µM [inhibitor, partial curve, poor fit]"},
      {"smiles": "Nc1nc(C2CC(N)C2)cc(N2CCC(C(=O)NCc3ccccn3)CC2)n1", "note": "(stereo not drawn)", "Potency": "inconclusive: 15.8 µM [inhibitor, partial curve, poor fit]"},
      {"smiles": "CCO[C@H]1CN(C(=O)c2cn3cc(Cl)ccc3n2)C[C@@H]1O", "Potency": "inconclusive: 25.1 µM [inhibitor, single point]"},
      {"smiles": "Cc1ccc(NC(=O)c2ccc3c(c2)N(C)C2CCCCN2C3=O)cc1C", "note": "(stereo not drawn)", "Potency": "inconclusive: 35.5 µM [inhibitor, partial curve, poor fit]"},
      {"smiles": "Cc1ccn2c(Nc3ccc4c(c3)OCCO4)c(-c3cccs3)nc2c1", "Potency": "inconclusive: 25.1 µM [inhibitor, partial curve, poor fit]"},
      {"smiles": "Cc1ccc(Cl)cc1NC(c1ccc(F)cc1)c1nnc(-c2ccccc2)o1", "note": "(stereo not drawn)", "Potency": "inconclusive: 11.2 µM [inhibitor, partial curve, poor fit]"},
      {"smiles": "N#Cc1nc(-c2ccccc2)oc1N1CCN(C(=O)c2ccco2)CC1", "Potency": "inconclusive: 25.1 µM [inhibitor, partial curve, poor fit]"},
      {"smiles": "CCCCOC(=O)CSc1nnc(-c2ccc(C)cc2)o1", "Potency": "inconclusive: 1.78 µM [inhibitor, full curve, poor fit]"},
      {"smiles": "COc1ccc2nc(/C=N/NC(=O)CCCCCNC(=O)OC(C)(C)C)ccc2c1", "Potency": "inconclusive: 35.5 µM [inhibitor, partial curve, poor fit]"},
      {"smiles": "COC(=O)c1cc(NCc2ccc(Cl)c(Cl)c2)ccc1N1CCOCC1", "Potency": "inconclusive: 28.2 µM [inhibitor, single point]"},
      {"smiles": "O=C(O)C[C@@H]1CCN(C(=O)NC2CCCCC2)C[C@@H]1CCN1C[C@@H]2C[C@H](C1)c1cccc(=O)n1C2", "Potency": "inconclusive: 20 µM [inhibitor, partial curve, poor fit]"},
      {"smiles": "CCOc1ccc(CN2CCN(c3nc4ccccc4o3)CC2CCO)cc1", "note": "(stereo not drawn)", "Potency": "inconclusive: 8.91 µM [inhibitor, full curve]"},
      {"smiles": "CNc1nc2c(c(C(=O)N3CCCC3)n1)CN(C(=O)CN1CCOC1=O)CC2", "Potency": "inconclusive: 20 µM [inhibitor, single point]"},
      {"smiles": "O=C(NCc1ccc(F)cc1)c1cnc(N2CCCCC2)c2ccccc12", "Potency": "inconclusive: 39.8 µM [inhibitor, single point]"},
      {"smiles": "COc1cc(OC)cc(C(=O)Nc2ccc3nc(Nc4cccc(C(F)(F)F)c4)cc(C)c3c2)c1", "Potency": "inconclusive: 14.1 µM [inhibitor, partial curve, poor fit]"},
      {"smiles": "Cc1nn(CC(=O)NCC2CCCO2)c(=O)c2nc(-c3ccccc3)sc12", "note": "(stereo not drawn)", "Potency": "active: 31.6 µM"},
      {"smiles": "COC(=O)C(NC(=O)CCc1c(C)nc2c(c(C)nn2-c2ccccc2)c1C)C(C)C", "note": "(stereo not drawn)", "Potency": "inconclusive: 39.8 µM [inhibitor, partial curve, poor fit]"},
      {"smiles": "CC(=O)N1C[C@@H]2CCCN3CCC[C@@H]([C@H]23)[C@H]1CCCC(=O)N1CCN(c2ccccn2)CC1", "Potency": "active: 31.6 µM"},
      {"smiles": "CCOc1ccc2oc(=O)c(-c3ccccc3)c(C)c2c1", "Potency": "inconclusive: 25.1 µM [inhibitor, partial curve, poor fit]"},
      {"smiles": "COCC(=O)N1CC[C@@H](CC(=O)O)[C@@H](CC2=NCCc3ccc(C)cc32)C1", "Potency": "inconclusive: 28.2 µM [inhibitor, single point]"},
      {"smiles": "Cc1nnn2c(C(=O)Nc3ccc(Cl)cc3Cl)cccc12", "Potency": "inconclusive: 10 µM [inhibitor, partial curve, poor fit]"},
      {"smiles": "Cc1[nH]c2ccccc2c1C1(O)C(=O)N(Cc2ccccc2Cl)c2ccccc21", "note": "(stereo not drawn)", "Potency": "inconclusive: 25.1 µM [inhibitor, single point]"},
      {"smiles": "Cc1cccc(N2CCN(C(=O)c3noc(-c4ccc5c(c4)OCO5)n3)CC2)c1", "Potency": "inconclusive: 31.6 µM [inhibitor, single point]"},
      {"smiles": "Cn1c(SCc2csc(-c3ccc(Cl)cc3)n2)nnc1C1CC1", "activity change, negative = inhibition": "inactive: 13%"},
      {"smiles": "COc1cc(SC)ccc1C(=O)N[C@H]1C[C@H]2C(=O)Nc3ccc(-c4ccc5c(c4)OCO5)cc3C(=O)N2C1", "Potency": "active: 31.6 µM"},
      {"smiles": "O=C(Nc1ccccc1)c1nc2c(o1)CCN(Cc1ccccc1)CC2", "Potency": "inconclusive: 25.1 µM [inhibitor, partial curve, poor fit]"},
      {"smiles": "O=C(O)CN1C2=C(C(=O)CCC2)C(c2ccc(Cl)cc2)C2=C1CCCC2=O", "Potency": "inconclusive: 22.4 µM [inhibitor, partial curve, poor fit]"},
      {"smiles": "Cn1cccc1CN1CC2(C1)C(=O)Nc1ccccc12", "Potency": "inconclusive: 44.7 µM [inhibitor, partial curve]"},
      {"smiles": "CC(=O)Nc1cc(-c2nc3ccc(C)cc3o2)ccc1Cl", "Potency": "inconclusive: 10 µM [inhibitor, partial curve, poor fit]"},
      {"smiles": "COc1cc(NC(=O)Nc2ccccc2OCc2cc(=O)n3cccc(C)c3n2)cc(OC)c1", "activity change, negative = inhibition": "inactive: -7.92%"},
      {"smiles": "CCCCN(Cc1ccccc1)c1ccc(C(=O)O)cc1NS(=O)(=O)c1ccc(C(C)=O)cc1", "activity change, negative = inhibition": "inactive: -1.26%"},
      {"smiles": "OCC1CN(C2CCC2)CC12CCN(Cc1ccc(F)cc1)CC2", "note": "(stereo not drawn)", "Potency": "inconclusive: 14.1 µM [inhibitor, partial curve]"},
      {"smiles": "Cc1cccc(CC(=O)N2CCCN(c3cc(-c4ccc(Br)cc4)[nH]n3)CC2)c1", "Potency": "inconclusive: 14.1 µM [inhibitor, partial curve, poor fit]"},
      {"smiles": "Cc1ccc(-c2cc(N3CCC(CNC(=O)c4ccc(=O)[nH]c4)CC3)n[nH]2)cc1", "activity change, negative = inhibition": "inactive: -26.2%"},
      {"smiles": "CCOc1ccc(C(=O)NCC(c2ccco2)S(=O)(=O)c2cccs2)cc1", "note": "(stereo not drawn)", "Potency": "inconclusive: 28.2 µM [inhibitor, single point]"},
      {"smiles": "O=C(NN1C(=O)/C(=C/C=C/c2ccco2)SC1=S)c1ccccc1O", "Potency": "inconclusive: 20 µM [inhibitor, partial curve, poor fit]"},
      {"smiles": "Cc1ccccc1N(C)S(=O)(=O)c1nnc(NC(=O)C(C)C)s1", "activity change, negative = inhibition": "inactive: -1.67%"},
      {"smiles": "COCCNC(=O)c1cc2c(=O)[nH]c(-c3ccccc3)cn2n1", "Potency": "inconclusive: 28.2 µM [inhibitor, partial curve, poor fit]"},
      {"smiles": "CCSS(=O)(=O)c1cccc2cccnc12", "Potency": "inconclusive: 8.91 µM [inhibitor, partial curve, poor fit]"},
      {"smiles": "CCOC(=O)c1ccc(N2C(=O)c3n[nH]c(C)c3C2c2ccc(OCC)cc2)cc1", "note": "(stereo not drawn)", "Potency": "inconclusive: 35.5 µM [inhibitor, single point]"},
      {"smiles": "CN1CC(=O)N(C2CCCNCC2)Cc2c(NCCO)ncnc21", "note": "(stereo not drawn)", "Potency": "inconclusive: 89.1 µM [inhibitor, partial curve]"}
    ]}
  ]
}
